What was measured:
[1] = tested on: moderately CXCR5-expressing SU-DHL6 cell line; test: FACS-based internalization assay, SU-DHL-6; type: cell-based, human; conditions: 10 μg/ml, 37° C.
Excerpt: SU-DHL-6: human B cell lymphoma cells (B cell non-Hodgkin, described as diffuse, mixed small and large cell type; cell line) ATCC-CRL-2959, standard medium: RPMI-1640 High Glucose (ATCC 30-2001) with L-glutamine, Hepes, sodium pyruvate+10% FCS (FBS Gibco 10500-064 heat inactivated, EU approved), CXCR5 positive.
(§1) Internalization is the key process for enabling specific and efficient preparation of the cytotoxic payload in antigen-expressing cancer cells by antibody-drug conjugates (ADC). This process is carried out by fluorescent labeling of specific antibodies and an isotype control antibody. For this purpose, first the conjugation of the fluorescent dye to lysine of the antibody was performed. The conjugation was conducted with a two-fold to 10-fold molar excess of CypHer 5E mono NHS ester (Batch 357392, GE Healthcare) at pH 8.3. After coupling was completed, the reaction mixture was purified by gel chromatography (Zeba Spin Desalting Columns, 40K, Thermo Scientific, No. 87768; elution buffer: DULBECCO'S PBS, Sima-Aldrich, No. D8537), to eliminate excess dye and adjust the pH. The protein solution was concentrated using VIVASPIN 500 columns (Sartorius stedim biotec). The determination of the dye load of the antibody was performed by spectrophotometric analysis (NanoDrop) followed by calculation (D/P=Adye[…]protein:(A280−0.16Adye)[…]dye).
(§2) The antigen to be investigated is expressed by hematopoietic suspension cells, and therefore the internalization was examined in a FACS-based internalization assay.
(§3) Cells with various target expression levels were investigated. The cells (5×10^4/well) were seeded in a 96-MTP (Greiner bio-one, CELLSTAR, 650 180, U-bottom) in 100 μL total volume. After addition of the target-specific antibody at a final concentration of 10 μg/ml, the reaction mixtures were incubated at 37° C. for different lengths of time (1 h, 2 h, 6 h, triplicate determination). The isotype check was handled under identical conditions. A parallel reaction mixture was kept constantly and incubated at 4° C. (negative control). The FACS analysis was performed using the Guava flow cytometer (Millipore). The kinetic evaluation was done by measuring the fluorescence intensity, and the assessment was conducted using the guavaSoft 2.6 software (Millipore). A significant and specific internalization was detected in various cells for the target-specific antibody described here.
(§4) The observed fluorescence intensities (MFI) for the CXCR5 high-expressing Rec-1 cell line and the moderately CXCR5-expressing SU-DHL6 cell line are summarized in Table 3.

[2] = tested on: CXCR5 high-expressing Rec-1 cell line; test: FACS-based internalization assay, Rec-1; type: cell-based, human; conditions: 10 μg/ml, 37° C.
Experimental: as §1, §2, §3, §4

B1: TPP-14495: anti-CXCR5 antibody, heavy chain SEQ ID NO: 9, light chain SEQ ID NO: 10 (antibody)
heavy: EVQLLESGGGLVQPGGSLRLSCAASGFTFSNYWMSWVRQAPGKGLEWVSAISGSGGSTRYADSVKGRFTISRDNSKNTLYLQMNSLRAEDTAVYYCTTQRRELGATNWGQGTLVTVSS[letters of human IgG1 constant region left out]
light: QSVLTQPPSASGTPGQRVTISCTGSSSNIGAGYVVHWYQQLPGTAPKLLIYSNNQRPSGVPDRFSGSKSGTSASLAISGLRSEDEADYYCQSYDSSLSGVVFGGGTKLTVLGQPKAAPSVTLFPPSSEELQANKATLVCLISDFYPGAVTVAWKADSSPVKAGVETTTPSKQSNNKYAASSYLSLTPEQWKSHRSYSCQVTHEGSTVEKTVAPTECS
internalization on SU-DHL-6 cells in contrast to TPP-10063 and 40C01 (in words) [1]: no improvement
internalization on Rec-1 cells in contrast to TPP-10063 and 40C01 (in words) [2]: improved

B2: TPP-14511: anti-CXCR5 antibody, heavy chain SEQ ID NO: 49, light chain SEQ ID NO: 50 (antibody)
heavy: EVQLLESGGGLVQPGGSLRLSCAASGFTFSNYWMSWVRQAPGKGLEWVSAISGSGGTTYYADSVKGRFTISRDNSKNTLYLQMNSLRAEDTAVYYCTTQRRELGATNWGQGTLVTVSS[letters of human IgG1 constant region left out]
light: QSVLTQPPSASGTPGQRVTISCTGSSSNIGAGYVVHWYQQLPGTAPKLLIYSNNQRPSGVPDRFSGSKSGTSASLAISGLRSEDEADYYCQSYDSSLSGVVFGGGTKLTVLGQPKAAPSVTLFPPSSEELQANKATLVCLISDFYPGAVTVAWKADSSPVKAGVETTTPSKQSNNKYAASSYLSLTPEQWKSHRSYSCQVTHEGSTVEKTVAPTECS
internalization on SU-DHL-6 cells in contrast to TPP-10063 and 40C01 (in words) [1]: improved
internalization on Rec-1 cells in contrast to TPP-10063 and 40C01 (in words) [2]: improved

B3: TPP-14499: anti-CXCR5 antibody, heavy chain SEQ ID NO: 19, light chain SEQ ID NO: 20 (antibody)
heavy: EVQLLESGGGLVQPGGSLRLSCAASGFTFSNYWGSWVRQAPGKGLEWVSAISGSGGSTYYADSVKGRFTISRDNSKNTLYLQMNSLRAEDTAVYYCTVLRRELGATNWGQGTLVTVSS[letters of human IgG1 constant region left out]
light: QSVLTQPPSASGTPGQRVTISCTGSSSNIGAGYVVHWYQQLPGTAPKLLIYSNNQRPSGVPDRFSGSKSGTSASLAISGLRSEDEADYYCQSYDSSLSGVVFGGGTKLTVLGQPKAAPSVTLFPPSSEELQANKATLVCLISDFYPGAVTVAWKADSSPVKAGVETTTPSKQSNNKYAASSYLSLTPEQWKSHRSYSCQVTHEGSTVEKTVAPTECS
internalization on SU-DHL-6 cells in contrast to TPP-10063 and 40C01 (in words) [1]: improved
internalization on Rec-1 cells in contrast to TPP-10063 and 40C01 (in words) [2]: improved

B4: TPP-14509: anti-CXCR5 antibody, heavy chain SEQ ID NO: 39, light chain SEQ ID NO: 40 (antibody)
heavy: EVQLLESGGGLVQPGGSLRLSCAASGFTFSNYWMSWVRQAPGKGLEWVSAISGSGGSTYYADSVKGRFTISRDNSKNTLYLQMNSLRAEDTAVYYCTVQRRELGATNWGQGTLVTVSS[letters of human IgG1 constant region left out]
light: QSVLTQPPSASGTPGQRVTISCTGSSSNIGAGYVVHWYQQLPGTAPKLLIYSNNQRPSGVPDRFSGSKSGTSASLAISGLRSEDEADYYCQSYDSSLSGVVFGGGTKLTVLGQPKAAPSVTLFPPSSEELQANKATLVCLISDFYPGAVTVAWKADSSPVKAGVETTTPSKQSNNKYAASSYLSLTPEQWKSHRSYSCQVTHEGSTVEKTVAPTECS
internalization on SU-DHL-6 cells in contrast to TPP-10063 and 40C01 (in words) [1]: improved
internalization on Rec-1 cells in contrast to TPP-10063 and 40C01 (in words) [2]: improved

B5: TPP-14514: anti-CXCR5 antibody, heavy chain SEQ ID NO: 59, light chain SEQ ID NO: 60 (antibody)
heavy: EVQLLESGGGLVQPGGSLRLSCAASGFTFSNNWMSWVRQAPGKGLEWVSAISGSGGSTYYADSVKGRFTISRDNSKNTLYLQMNSLRAEDTAVYYCTVQRRELGATNWGQGTLVTVSS[letters of human IgG1 constant region left out]
light: QSVLTQPPSASGTPGQRVTISCTGSSSNIGAGYVVHWYQQLPGTAPKLLIYSNNQRPSGVPDRFSGSKSGTSASLAISGLRSEDEADYYCQSYDSSLSGVVFGGGTKLTVLGQPKAAPSVTLFPPSSEELQANKATLVCLISDFYPGAVTVAWKADSSPVKAGVETTTPSKQSNNKYAASSYLSLTPEQWKSHRSYSCQVTHEGSTVEKTVAPTECS
internalization on SU-DHL-6 cells in contrast to TPP-10063 and 40C01 (in words) [1]: improved
internalization on Rec-1 cells in contrast to TPP-10063 and 40C01 (in words) [2]: improved

B6: TPP-14505: anti-CXCR5 antibody, heavy chain SEQ ID NO: 29, light chain SEQ ID NO: 30 (antibody)
heavy: EVQLLESGGGLVQPGGSLRLSCAASGFTFSNNWMSWVRQAPGKGLEWVSAISGSGGSTYYADSVKGRFTISRDNSKNTLYLQMNSLRAEDTAVYYCNVQRRELGATNWGQGTLVTVSS[letters of human IgG1 constant region left out]
light: QSVLTQPPSASGTPGQRVTISCTGSSSNIGAGYVVHWYQQLPGTAPKLLIYSNNQRPSGVPDRFSGSKSGTSASLAISGLRSEDEADYYCQSYDSSLSGVVFGGGTKLTVLGQPKAAPSVTLFPPSSEELQANKATLVCLISDFYPGAVTVAWKADSSPVKAGVETTTPSKQSNNKYAASSYLSLTPEQWKSHRSYSCQVTHEGSTVEKTVAPTECS
internalization on SU-DHL-6 cells in contrast to TPP-10063 and 40C01 (in words) [1]: improved
internalization on Rec-1 cells in contrast to TPP-10063 and 40C01 (in words) [2]: improved

Reference: patent US20210275686A1, “BINDER/ACTIVE AGENT CONJUGATES DIRECTED AGAINST CXCR5, HAVING ENZYMATICALLY CLEAVABLE LINKERS AND IMPROVED ACTIVITY PROFILE” (BAYER AKTIENGESELLSCHAFT, priority 2018, published 2021)
